The supplement of paper PMC8728848
The list shows a part of the results.

Assays:
Assay in all cases: glycan array binding signal (z-score within array); higher = stronger binding
Details in all cases: glycan notation: IUPAC condensed, linker removed
[1] = biological target: GlcNAc(b1-3)Gal(b1-4)GlcNAc(b1-3)Gal(b1-4)GlcNAc(b1-3)GalNAc
In short: (§1)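 From the Consortium for Functional Glycomics database, 3228 arrays were curated, keeping only those whose protein sequence was available. Binding is given as a within-array Z-score averaged across arrays sharing a protein sequence and across linkers. Negative Z-scores can be read as non-binding.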

[2] = biological target: GlcNAc(b1-3)Gal(b1-4)GlcNAc(b1-3)GalNAc
In short: as §1

[3] = biological target: GlcNAc(b1-3)Gal(b1-4)GlcNAc(b1-3)[GlcNAc(b1-3)Gal(b1-4)GlcNAc(b1-3)]GalNAc
In short: as §1

[4] = biological target: GlcNAc(b1-3)Gal(b1-4)GlcNAc(b1-6)[Gal(b1-3)]GalNAc
In short: as §1

[5] = biological target: GlcNAc(b1-3)Gal(b1-4)GlcNAc(b1-6)[GlcNAc(b1-3)Gal(b1-3)]GalNAc
In short: as §1

[6] = biological target: GlcNAc(b1-3)Gal(b1-4)GlcNAc(b1-6)[GlcNAc(b1-3)]Gal(b1-4)GlcNAc
In short: as §1

[7] = biological target: GlcNAc(b1-3)GalNAc
In short: as §1

[8] = biological target: GlcNAc(b1-3)Man
In short: as §1

[9] = biological target: GlcNAc(b1-3)[GlcNAc(b1-4)][GlcNAc(b1-6)]GlcNAc
In short: as §1

[10] = biological target: GlcNAc(b1-3)[GlcNAc(b1-6)]Gal(b1-4)GlcNAc
In short: as §1

[11] = biological target: GlcNAc(b1-3)[GlcNAc(b1-6)]GalNAc
In short: as §1

[12] = biological target: GlcNAc(b1-4)Gal(b1-4)GlcNAc
In short: as §1

[13] = biological target: GlcNAc(b1-4)GlcNAc
In short: as §1

[14] = biological target: GlcNAc(b1-4)GlcNAc(b1-4)GlcNAc
In short: as §1

[15] = biological target: GlcNAc(b1-4)GlcNAc(b1-4)GlcNAc(b1-4)GlcNAc(b1-4)GlcNAc
In short: as §1

[16] = biological target: GlcNAc(b1-4)GlcNAc(b1-4)GlcNAc(b1-4)GlcNAc(b1-4)GlcNAc(b1-4)GlcNAc
In short: as §1

[17] = biological target: GlcNAc(b1-4)[GlcNAc(b1-6)]GalNAc
In short: as §1

[18] = biological target: GlcNAc(b1-6)Gal(b1-4)GlcNAc
In short: as §1

[19] = biological target: GlcNAc(b1-6)GalNAc
In short: as §1

[20] = biological target: GlcNAc6S(b1-3)Gal(b1-4)GlcNAc
In short: as §1

[21] = biological target: Kdn(a2-3)Gal(b1-3)GalNAc
In short: as §1

[22] = biological target: Kdn(a2-3)Gal(b1-3)GlcNAc
In short: as §1

[23] = biological target: Kdn(a2-3)Gal(b1-4)Glc
In short: as §1

[24] = biological target: Kdn(a2-3)Gal(b1-4)GlcNAc
In short: as §1

[25] = biological target: Kdn(a2-3)Gal(b1-4)[Fuc(a1-3)]GlcNAc
In short: as §1

[26] = biological target: Kdn(a2-6)Gal(b1-4)GlcNAc
In short: as §1

[27] = biological target: Man(a1-2)Man(a1-2)Man(a1-3)Man
In short: as §1

[28] = biological target: Man(a1-2)Man(a1-2)Man(a1-6)[Man(a1-3)]Man
In short: as §1

[29] = biological target: Man(a1-2)Man(a1-3)Man
In short: as §1

[30] = biological target: Man(a1-2)Man(a1-3)[Man(a1-2)Man(a1-6)]Man
In short: as §1

[31] = biological target: Man(a1-2)Man(a1-3)[Man(a1-2)Man(a1-6)]Man(a1-6)[Man(a1-2)Man(a1-2)Man(a1-3)]Man
In short: as §1

[32] = biological target: Man(a1-2)Man(a1-3)[Man(a1-2)Man(a1-6)]Man(a1-6)[Man(a1-2)Man(a1-2)Man(a1-3)]Man(b1-4)GlcNAc(b1-4)GlcNAc
In short: as §1

[33] = biological target: Man(a1-2)Man(a1-3)[Man(a1-6)]Man(a1-6)[Man(a1-2)Man(a1-3)]Man(b1-4)GlcNAc(b1-4)GlcNAc
In short: as §1

[34] = biological target: Man(a1-2)Man(a1-6)[Man(a1-3)]Man(a1-6)[Man(a1-2)Man(a1-2)Man(a1-3)]Man
In short: as §1

[35] = biological target: Man(a1-2)Man(a1-6)[Man(a1-3)]Man(a1-6)[Man(a1-2)Man(a1-2)Man(a1-3)]Man(b1-4)GlcNAc(b1-4)GlcNAc
In short: as §1

[36] = biological target: Man(a1-3)[Man(a1-6)]Man
In short: as §1

[37] = biological target: Man(a1-3)[Man(a1-6)]Man(a1-6)[Man(a1-2)Man(a1-3)]Man(b1-4)GlcNAc(b1-4)GlcNAc
In short: as §1

[38] = biological target: Man(a1-3)[Man(a1-6)]Man(a1-6)[Man(a1-3)]Man
In short: as §1

[39] = biological target: Man(a1-3)[Man(a1-6)]Man(a1-6)[Man(a1-3)]Man(b1-4)GlcNAc(b1-4)GlcNAc
In short: as §1

[40] = biological target: Man(a1-3)[Man(a1-6)]Man(b1-4)GlcNAc(b1-4)GlcNAc
In short: as §1

[41] = biological target: Man(a1-3)[Man(a1-6)]Man(b1-4)GlcNAc(b1-4)[Fuc(a1-6)]GlcNAc
In short: as §1

[42] = biological target: Man(a1-6)Man
In short: as §1

[43] = biological target: Man(b1-4)GlcNAc
In short: as §1

[44] = biological target: MurNAc(b1-4)GlcNAc
In short: as §1

[45] = biological target: Neu5Ac(a2-3)Gal
In short: as §1

B1: AidA (Burkholderia cenocepacia) (protein)
chain: MSRVTDVLVSFDTETILKKYPNPSKNPAAPTLIDWRYVYMVTNQDNVISGQAGGELDLKAQVGDLIRWRETSLSLGFENQVVFYKFIGNVGNDLISTPTPRVAEASIPVPNTSKPEVPTCQKVANYYWSSECLKVGRVTYHFQFQIIDRNCQSQGCFSWDPFISIHN
[1]
  glycan array binding signal (z-score): -0.341
[2]
  glycan array binding signal (z-score): -0.626
[3]
  glycan array binding signal (z-score): -0.928
[4]
  glycan array binding signal (z-score): -0.57
[5]
  glycan array binding signal (z-score): -0.341
[6]
  glycan array binding signal (z-score): -0.217
[7]
  glycan array binding signal (z-score): 0.029
[8]
  glycan array binding signal (z-score): -0.022
[9]
  glycan array binding signal (z-score): -0.404
[10]
  glycan array binding signal (z-score): 0.121
[11]
  glycan array binding signal (z-score): 0.435
[12]
  glycan array binding signal (z-score): -0.493
[13]
  glycan array binding signal (z-score): 0.215
[14]
  glycan array binding signal (z-score): -0.409
[15]
  glycan array binding signal (z-score): -0.717
[16]
  glycan array binding signal (z-score): -0.697
[17]
  glycan array binding signal (z-score): -0.528
[18]
  glycan array binding signal (z-score): 0.144
[19]
  glycan array binding signal (z-score): 0.657
[20]
  glycan array binding signal (z-score): -0.08
[21]
  glycan array binding signal (z-score): -0.133
[22]
  glycan array binding signal (z-score): 0.184
[23]
  glycan array binding signal (z-score): -0.646
[24]
  glycan array binding signal (z-score): -0.162
[25]
  glycan array binding signal (z-score): -0.818
[26]
  glycan array binding signal (z-score): 1.36
[27]
  glycan array binding signal (z-score): 0.728
[28]
  glycan array binding signal (z-score): -0.685
[29]
  glycan array binding signal (z-score): 0.489
[30]
  glycan array binding signal (z-score): -0.113
[31]
  glycan array binding signal (z-score): -0.055
[32]
  glycan array binding signal (z-score): 0.274
[33]
  glycan array binding signal (z-score): 0.318
[34]
  glycan array binding signal (z-score): -0.364
[35]
  glycan array binding signal (z-score): -0.346
[36]
  glycan array binding signal (z-score): 0.256
[37]
  glycan array binding signal (z-score): -0.496
[38]
  glycan array binding signal (z-score): -0.413
[39]
  glycan array binding signal (z-score): 0.304
[40]
  glycan array binding signal (z-score): -0.131
[41]
  glycan array binding signal (z-score): 1.97
[42]
  glycan array binding signal (z-score): 0.443
[43]
  glycan array binding signal (z-score): 0.146
[44]
  glycan array binding signal (z-score): -0.336
[45]
  glycan array binding signal (z-score): -0.347
